Source: the supplement of paper PMC3694890
± gives the uncertainty stated by the source. The list shows a part of the results. A small y stands for phosphotyrosine.

target: GRB2 (endogenous complexes from cell lysate), P62993; experiment: GRB2 complex binding differential signal (pY peptide minus Ala control peptide) (fluorescence intensity units); higher = stronger GRB2 complex binding; conditions: MCF7
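Also: phosphopeptide probes on the chip at 1–4 µM, lysate proteins bound in 20 mM Tris pH 7.0 buffer with 140 mM NaCl, 1% Triton X-100 and 5% glycerol.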

Row | Binder | GRB2 complex binding differential signal
1 | ySACSM [GRB10_67/A1] | 718 ± 400
2 | yVQALF [GRB2_160/A1] | 336 ± 260
3 | yVTPVN [GRB2_209/A1] | 28600 ± 8800
4 | ySEDGA [GRB7_107/A1] | 240 ± 180
5 | yISPRS [HCK_209/A1] | 15800 ± 1900
6 | yIITEF [HCK_330/A1] | 270 ± 350
7 | yTAREG [HCK_411/A1] | 2200 ± 290
8 | yVPDPT [HCK_51/A1] | 1970 ± 650
9 | yTATES [HCK_515/A1] | 1770 ± 510
10 | yANNVM [ACTS_296/A1] | 24300 ± 3300
11 | yQQQPG [HCK_522/A1] | 2630 ± 800
12 | yIAVAR [HS105_14/A1] | 6010 ± 440
13 | yDLVPL [HS105_189/A1] | 371 ± 280
14 | yKGETK [HSP72_108/A1] | 654 ± 400
15 | yVAFTD [HSP72_42/A1] | 79.7 ± 1800
16 | yYSEEN [IGF1R_1280/A1] | -0.875 ± 280

same assay, conditions: MCF10A

Row | Binder | GRB2 complex binding differential signal
17 | ySACSM [GRB10_67/A1] | 459 ± 290
18 | yVQALF [GRB2_160/A1] | 503 ± 190
19 | yVTPVN [GRB2_209/A1] | 8790 ± 3700
20 | ySEDGA [GRB7_107/A1] | 389 ± 210
21 | yISPRS [HCK_209/A1] | 14700 ± 3200
22 | yIITEF [HCK_330/A1] | 168 ± 360
23 | yTAREG [HCK_411/A1] | 1840 ± 260
24 | yVPDPT [HCK_51/A1] | 1780 ± 1100
25 | yTATES [HCK_515/A1] | 1290 ± 340
26 | yANNVM [ACTS_296/A1] | 17300 ± 2900
27 | yQQQPG [HCK_522/A1] | 2510 ± 990
28 | yIAVAR [HS105_14/A1] | 3510 ± 550
29 | yDLVPL [HS105_189/A1] | 490 ± 250
30 | yKGETK [HSP72_108/A1] | 1080 ± 240
31 | yVAFTD [HSP72_42/A1] | 615 ± 370
32 | yYSEEN [IGF1R_1280/A1] | 166 ± 630

same assay, conditions: MDA-MB-231

Row | Binder | GRB2 complex binding differential signal
33 | ySACSM [GRB10_67/A1] | 828 ± 370
34 | yVQALF [GRB2_160/A1] | 997 ± 390
35 | yVTPVN [GRB2_209/A1] | 5350 ± 670
36 | ySEDGA [GRB7_107/A1] | 588 ± 340
37 | yISPRS [HCK_209/A1] | 4670 ± 770
38 | yIITEF [HCK_330/A1] | 510 ± 280
39 | yTAREG [HCK_411/A1] | 581 ± 350
40 | yVPDPT [HCK_51/A1] | 1420 ± 410
41 | yTATES [HCK_515/A1] | 1820 ± 560
42 | yANNVM [ACTS_296/A1] | 5360 ± 1200
43 | yQQQPG [HCK_522/A1] | 571 ± 340
44 | yIAVAR [HS105_14/A1] | 1170 ± 490
45 | yDLVPL [HS105_189/A1] | 828 ± 290
46 | yKGETK [HSP72_108/A1] | 370 ± 480
47 | yVAFTD [HSP72_42/A1] | 2820 ± 550
48 | yYSEEN [IGF1R_1280/A1] | 417 ± 340

same assay, conditions: T47D

Row | Binder | GRB2 complex binding differential signal
49 | ySACSM [GRB10_67/A1] | 2090 ± 1800
50 | yVQALF [GRB2_160/A1] | 3000 ± 1500
51 | yVTPVN [GRB2_209/A1] | 6830 ± 2600
52 | ySEDGA [GRB7_107/A1] | 613 ± 1700
53 | yISPRS [HCK_209/A1] | 4110 ± 5000
54 | yIITEF [HCK_330/A1] | 964 ± 1200
55 | yTAREG [HCK_411/A1] | 733 ± 1200
56 | yVPDPT [HCK_51/A1] | 2860 ± 1900
57 | yTATES [HCK_515/A1] | 3930 ± 1300
58 | yANNVM [ACTS_296/A1] | 12300 ± 5000
59 | yQQQPG [HCK_522/A1] | 694 ± 1200
60 | yIAVAR [HS105_14/A1] | 4090 ± 1000
61 | yDLVPL [HS105_189/A1] | 1590 ± 1300
62 | yKGETK [HSP72_108/A1] | 472 ± 1100
63 | yVAFTD [HSP72_42/A1] | 8300 ± 2600
64 | yYSEEN [IGF1R_1280/A1] | 135 ± 1000
